Measurements from PubChem BioAssay AID1457 (National Center for Advancing Translational Sciences (NCATS), 2008).
Among all 210,000 compounds or so, about 730 (0.35%) were called active. Inconclusive means that the source gave no clear call. Such entries were picked first, then a sample of the others. Calls come from the whole dose curve; as a rule, active = well fitted inhibition curve with a large enough effect; inconclusive = small, poorly fitted or top-dose-only effect; inactive = no such curve, though single readings can be large or run the other way. Potencies beside an inconclusive call are fits to weak or partial responses and may not hold up.

Test: qHTS Assay for Identifying the Cell-Membrane Permeable IMPase Inhibitors: Potentiation with Lithium; note: nearly all actives have a fitted effect of over 50% in size;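 for activity, negative = IMPase inhibition: plate controls were basal vehicle for no effect and high inhibitor control for full effect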
Conditions: CHO-M1 cells, IP1 TR-FRET (IP-One), carbachol + lithium; series mostly up to 59.4 µM; activity, negative = IMPase inhibition: at the top concentration
Procedure, shortened: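 IP1 accumulation measured by competitive TR-FRET in lysed CHO-M1 cells after 30 min compound exposure at 37C, with a small lithium addition to potentiate weak responses. Hill-equation AC50 from ratio and donor-channel data.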
Potency is the fitted concentration of half-maximal effect.

Potency, inactive:
CC(C)(CO)[C@@H](O)C(=O)NCCCO

Potency, inconclusive:
Cc1cccc(C(=O)Nc2ccccc2SCC(=O)Nc2ccc(C)c(Cl)c2)c1 28.2 µM [inhibitor, single point]
Cc1ccc(-c2nc3ccccc3s2)cc1NC(=O)c1cc(-n2cnnc2)ccc1Cl 22.4 µM [inhibitor, single point]
CC1=CC(=C2C(=O)c3ccccc3C2=O)C=C(C)O1 28.2 µM [inhibitor, single point]
Cc1sc(NC(=O)c2oc3ccccc3c2C)c(C#N)c1C 12.6 µM [inhibitor, single point]
COc1cccc(Cn2c(N)c(C#N)c3nc4ccccc4nc32)c1OC 11.2 µM [inhibitor, single point]
Cc1ccc(-c2c(C#N)c(N)nc3c2CCCC3)s1 12.6 µM [inhibitor, single point]
COC(=O)c1ccc(NC(=O)c2cc(Cl)ccc2OC)cc1 28.2 µM [inhibitor, single point]
CCc1n[n+](CC(=O)c2ccccc2)c(N)s1 4.47 µM [inhibitor, single point]
Fc1ccc(-c2ccnc3nc(-n4cccc4)nn23)cc1 28.2 µM [inhibitor, single point]
C[C@](N)(Cc1ccc(O)cc1)C(=O)O 3.98 µM [inhibitor, single point]
CC1CN(c2nc3ccccc3nc2C(C#N)C(=O)OC2CCCCC2)CC(C)O1 (stereo not drawn) 28.2 µM [inhibitor, single point]
CCN(CC)c1ccc(C(=O)c2cnc(/N=C/N(C)C)s2)cc1 15.8 µM [inhibitor, single point]
COc1cc(CN2CCC(C(=O)NC3CCCC3)CC2)cc(Br)c1O 3.16 µM [inhibitor, full curve, poor fit]
Cc1cccc(-c2nnc(N)s2)c1 28.2 µM [inhibitor, single point]
O=C(c1ccccc1Cl)N(C(=O)c1ccccc1Cl)c1nccc(-c2cccs2)n1 28.2 µM [inhibitor, single point]
COCCCN1C(=O)C(=O)/C(=C(/O)c2ccc(OCC(C)C)cc2C)C1c1cccnc1 (stereo not drawn) 10 µM [inhibitor, partial curve]
CSc1nc2sc3c(c2c(=O)[nH]1)CCCC3 31.6 µM [inhibitor, partial curve, poor fit]
CC1(C)Cc2nc3sc4c(=O)n(CC(=O)NCc5ccccc5)cnc4c3cc2CO1 11.2 µM [inhibitor, single point]
O=C(c1cc([N+](=O)[O-])cc([N+](=O)[O-])c1)N1CCN(Cc2ccc3c(c2)OCO3)CC1 5.01 µM [inhibitor, single point]
Cc1cccc2c1nc(-c1ccccc1)n1cnnc21 15.8 µM [inhibitor, single point]
Cc1nc(NC(=O)COc2ccccc2)sc1C(=O)Nc1ccccc1 22.4 µM [inhibitor, single point]
CCOc1cc2[nH]c(=S)n(Cc3ccc(C(=O)NCCOC)cc3)c(=O)c2cc1OCC 28.2 µM [inhibitor, single point]
Nc1nnc(CSc2ccc(Cl)cc2)s1 15.8 µM [inhibitor, single point]
O=C(O)CCCCCNc1ncnc2ccc(Br)cc12 12.6 µM [inhibitor, partial curve]
O=C(/C=C/c1ccc2c(c1)OCO2)Nc1nc(-c2ccc(F)cc2F)cs1 14.1 µM [inhibitor, single point]
O=C(CCCCCn1c(=S)[nH]c2cc3c(cc2c1=O)OCO3)N1CCN(C(=O)c2ccco2)CC1 22.4 µM [inhibitor, single point]
CCOC(=O)c1cc2sc(C)cc2n1CC(=O)NCCc1ccccc1 28.2 µM [inhibitor, single point]
COc1ccc(-c2nnc(NC(=O)CSc3ccc(Cl)cc3)s2)cc1OC 28.2 µM [inhibitor, single point]
Nc1cc2nsnc2cc1Br 11.2 µM [inhibitor, partial curve]
CN(C)/C=C/c1onc(-c2c(F)cccc2Cl)c1C#N 3.16 µM [inhibitor, partial curve]
O=C1c2cnc3ncnn3c2CC2c3ccccc3CCN12 (stereo not drawn) 3.16 µM [inhibitor, single point]
CN1/C(=C\C(=O)COC(=O)c2ccco2)C(C)(C)c2ccccc21 2.51 µM [inhibitor, partial curve]
COCCn1c(=S)[nH]c2ccc(N(C)C)cc2c1=O 28.2 µM [inhibitor, single point]
N#Cc1c(-c2cccc(Br)c2)cc(-c2cccnc2)nc1N 22.4 µM [inhibitor, single point]
Cc1cccc(NC(=O)c2ccc3c(Cl)c4c(nc3c2)CCCC4)n1 28.2 µM [inhibitor, single point]
CC(=O)N1CCN(C(=S)c2ccc(N(C)C)cc2)CC1 112 µM [inhibitor, partial curve, poor fit]
CC(=O)c1ccc(NC(=O)Cn2nc(C)cc2C)cc1 5.62 µM [inhibitor, partial curve]
CCC(C)(C)C1CCc2c(sc(NC(=O)c3ccoc3C)c2C(N)=O)C1 (stereo not drawn) 8.91 µM [inhibitor, single point]
Cc1nn2cc(-c3ncc(C(F)(F)F)cc3Cl)cnc2c1Br 14.1 µM [inhibitor, single point]
Cc1ccc(-c2c(C)c(-c3ccc(F)cc3)nc(N)c2C#N)o1 31.6 µM [inhibitor, single point]
COc1cc2c(=O)n(Cc3ccco3)c(=O)n(CC(=O)c3cccc(Br)c3)c2cc1OC 28.2 µM [inhibitor, single point]
CCOCCCNC(=O)/C(C#N)=C/c1ccc(Cl)c([N+](=O)[O-])c1 5.01 µM [inhibitor, single point]
COc1ccc(Oc2ncc3nc(-c4ccc(OC)cc4)c(=O)n(Cc4cccs4)c3n2)cc1 28.2 µM [inhibitor, single point]

Potency, active:
CCOC(=O)c1sc(NC(=O)CSc2nnnn2-c2ccc(C)cc2C)nc1C 10 µM
CCCCNc1nc2c(S(=O)(=O)c3ccccc3)nnn2c2ccccc12 8.91 µM
COc1ccc(-c2nc3cnc(Oc4ccccc4)nc3n(CCC#N)c2=O)cc1 10 µM
CCCOc1ccc(/C(O)=C2/C(=O)C(=O)N(CCOC)C2c2cccnc2)cc1 (stereo not drawn) 11.2 µM
CCOc1ccc(/C(O)=C2/C(=O)C(=O)N(CCOCCO)C2c2ccccc2)cc1 (stereo not drawn) 11.2 µM

activity, negative = IMPase inhibition, inactive:
Cc1ccc(/C=N/n2c(C3CCCCC3)n[nH]c2=S)s1 3.38%
CCc1cccc(C)c1NC(=S)N(CCN(C)C)C(C)c1cccnc1 (stereo not drawn) -0.76%
COc1cccc(NC(=O)Cc2nnc(SCCOc3ccccc3)n2C)c1 23% [at 38.3 µM]
Cc1oc(=O)c(NC(=O)c2ccccc2)cc1C(N)=O 0.277%
O=C(NCC1CCCO1)c1ccc2c(=O)n(Cc3ccco3)c(SCC(=O)N3CCCC3)nc2c1 (stereo not drawn) -3.96% [at 38.3 µM]
CCOC(=O)c1ccccc1NC(=O)CN(c1ccccc1OC)S(C)(=O)=O 15.1% [at 38.3 µM]
CNc1ccc(Br)cc(C(=O)/C=C/c2cccc(OC)c2OC)c1=O 19.8%
CC1CCCCN1C(=O)CSc1nc(C2CC2)nc2c1cnn2-c1ccccc1 (stereo not drawn) 27.3% [at 38.3 µM]
COc1ccc(CCNC(=O)C(=O)NCCOc2ccccc2Cl)cc1OC -1.04%
CC(=O)Nc1ccc(NC(=O)C(Cc2ccccc2)NC(=O)C2CCCCC2)cc1 (stereo not drawn) -4.53%
CCOc1ccc(NC(=S)N2CCC(c3nc4ccccc4[nH]3)CC2)cc1 7.92%
CC(C)CC(NC(=O)C(NC(=O)OC(C)(C)C)C(C)C)C(=O)NC(CCC(=O)OCc1ccccc1)C(N)=O (stereo not drawn) 10.6%
Cc1[nH]nc(SCC(=O)NCCc2ccccc2)c1[N+](=O)[O-] 3.68%
O=C(Nc1nc(N2C(=O)c3ccccc3C2=O)n(-c2ccccc2)n1)c1ccccc1 1.01%
CN(C)S(=O)(=O)c1ccc(NC(=O)CN2CCC(Cc3ccccc3)CC2)cc1 15.9%
N#C/C(=C\c1cccc([N+](=O)[O-])c1)C(=O)Nc1cccnc1 -5.37%
CN(CC(=O)NCc1ccccc1Cl)CC(=O)Nc1cccc(F)c1 1.13%
Cc1noc(C)c1C(=O)N1CCC2(CCCN(Cc3nccs3)C2)CC1 16.9%
CCOC(=O)c1ccc(N2C(=O)CC(SCC(=O)Nc3ccc(S(N)(=O)=O)cc3)C2=O)cc1 (stereo not drawn) -4.65%
COCCNC(=O)CCCn1c(=O)c2cc(OC)c(OC)cc2n(CC(=O)c2cccc(OC)c2)c1=O -8.54%
Cc1nn(C)cc1CNC(=O)c1cccc(F)c1 4.01%
O=C1C(Cl)=C(N2CCOCC2)C(=O)N1c1ccccc1Cl -3.36% [at 38.3 µM]
CC(O)CSc1nc2c(c(=O)[nH]c(=O)n2C)n1CC(O)COc1ccccc1 (stereo not drawn) -2.12%
O=C(COc1cc(F)ccc1[N+](=O)[O-])Nc1ccc(N2CCOCC2)cc1 -9.12%
